Assay results from the antibiotic and cytotoxicity screens of Wong et al. (2023).
Some of the results follow.

system: S. aureus RN4220; assay: growth inhibition call (relative growth <= 0.2); conditions: 50 µM

Growth inhibition call, inactive:
COc1ccc(S(=O)(=O)N(C)C[C@@H]2Oc3ccc(NS(=O)(=O)c4cccs4)cc3CC(=O)N([C@H](C)CO)C[C@@H]2C)cc1
CC(C)NC(=O)N(C)C[C@H]1OCCCC[C@H](C)Oc2ccc(NC(=O)C3CCCCC3)cc2C(=O)N([C@@H](C)CO)C[C@H]1C
O=C(C[C@H]1C=C[C@H](NC(=O)Cc2ccccn2)[C@H](CO)O1)NCCc1ccncc1
N#C[C@H](N)c1ccc(Cl)cc1
C[C@H]1CN([C@@H](C)CO)C(=O)Cc2cc(NC(=O)CCCCCC(=O)Nc3ccccc3N)ccc2O[C@H]1CN(C)Cc1ccc(C(F)(F)F)cc1
CN(C)CCCCCCNC(=O)[C@@H]1C[C@@H]2C(=O)N[C@@H](CCCC[N+](C)(C)C)C(=O)N2[C@@H]1c1ccc(O)cc1
C[C@@H]1CN([C@@H](C)CO)S(=O)(=O)c2ccc(C#CC3CCCC3)cc2O[C@@H]1CN(C)C(=O)Cc1ccncc1
COc1ccc(cc1)S(=O)(=O)N1C[C@]2(C1)CN([C@H](CO)c1c2c2ccc(cc2n1C)OC)C(=O)CN(C)C
N[C@@H](C[C@@H](F)C(=O)O)C(=O)O
O=C(C[C@@H]1CC[C@H]2NC[C@H](O)COC[C@@H]2O1)NCCN1CCCCC1
C[C@@H]1CCCCO[C@@H](CN(C)S(=O)(=O)c2ccc(F)cc2)[C@@H](C)CN([C@@H](C)CO)C(=O)c2cc(NC(=O)Cc3ccccc3)ccc2O1
Nc1ncccc1O
CCOC(=O)c1nnn(-c2nonc2N)c1CN1CCSCC1
C[C@@H]1CN([C@@H](C)CO)C(=O)c2cc(NC(=O)Nc3ccc(C(F)(F)F)cc3)ccc2O[C@@H]1CN(C)C(=O)Nc1ccc2c(c1)OCO2
COc1ccc(S(=O)(=O)N(C)C[C@@H]2Oc3ccc(NC(=O)Cn4cnnn4)cc3CC(=O)N([C@@H](C)CO)C[C@H]2C)cc1
COc1ccc(NC(=O)Nc2ccc3c(c2)C(=O)N([C@H](C)CO)C[C@@H](C)[C@@H](CN(C)Cc2ccc4c(c2)OCO4)OCCCC[C@H](C)O3)cc1
C[C@H](CO)N1C[C@H](C)[C@H](CN(C)Cc2cccc3c2OCCCO3)OCc2ccccc2-c2ccccc2C1=O
CCOc1nc2c(N)ncnc2n1CC
CC(=O)OC[C@@H]1O[C@H](O[C@@H]2CC[C@]34C[C@]35CC[C@]3(C)[C@@H]([C@@H](C)[C@H]6C[C@@H](O)C(C)(C)O6)CC[C@@]3(C)[C@H]5CC[C@H]4[C@H]2C)[C@@H](O)[C@H](OC(C)=O)[C@@H]1O[C@H]1O[C@@H](CO)[C@@H](O[C@H]2O[C@@H](CO)[C@@H](O)[C@@H](O)[C@@H]2O)[C@@H](O[C@H]2O[C@@H](C)[C@@H](O)[C@@H](O)[C@@H]2O)[C@@H]1O
C[C@@H]1CN([C@H](C)CO)C(=O)c2cc(NC(=O)Cn3cnnn3)ccc2O[C@@H]1CN(C)S(=O)(=O)c1ccccc1
